Experimental data reported in PubChem BioAssay AID1963576 (National Center for Advancing Translational Sciences (NCATS), 2024).
In all, about 46,000 compounds went through this assay and about 60 (0.1%) were called active. Not shown: some 3% with an inconclusive outcome. Calls follow the shape of the dose curve; as a rule, active = well fitted inhibition curve with a large enough effect; inconclusive = small, poorly fitted or top-dose-only effect; inactive = no such curve, though single readings can be large or run the other way. The list shows a part of the results.

Experiment: Primary qHTS assay for Inhibitors of ovarian cancer metastasis using an organotypic tumor microenvironment (TME) model. Also: nearly all actives have a fitted effect of over 65% in size.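 As to activity change, negative = inhibition: plate controls were DMSO wells for no effect and tomatine positive control wells for full effect.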
Conditions: SKOV3ip1-GFP adhesion/invasion on 3D omental model, fluorescence; series mostly up to 45.8 µM; activity change, negative = inhibition: at the top concentration
How it was run: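 A 3D layer of primary human omental fibroblasts, mesothelial cells, fibronectin and collagen I, grown 48 hr, received SKOV3ip1-GFP cells in serum-free medium plus compounds at 0.36-46 umol/L. After 2 hr RT and 16 hr 37 C, fixed adherent GFP cells were counted; normalized to DMSO and tomatine.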

Activity change, negative = inhibition, inactive:
CC(C)COc1ccc(C(=O)N(Cc2cccc(F)c2)C2CCS(=O)(=O)C2)cc1 (configuration not stated) 5.46%
CCOc1ccc(S(=O)(=O)NCc2cccn2Cc2cccc(C)c2)cc1 -11.5%
CCOC(=O)c1cnc2ccc(OCC)cc2c1NCCc1ccc(OC)c(OC)c1 8.55%
CCOC(=O)c1cc(-c2ccccc2)n(-c2cccc(C(=O)NC(C)(C)C)c2)c1C 3.68%
Cc1ccc(C)c(N2CCN(C(c3ccccc3)c3nnc(-c4ccccc4)o3)CC2)c1 (configuration not stated) 5.16%
CCCn1c2ccccc2c2cnn(CC(=O)NCCCOC(C)C)c(=O)c21 14.7%
Cc1cccc(NC(=O)c2cc3c([nH]c2=O)CC(c2ccccc2)CC3=O)c1 (configuration not stated) -5.26%
COc1ccc(CCNC(=O)Cc2ccc(NC(=O)N3CCSc4ncccc43)cc2)cc1OC 8.14%
COc1cccc(-c2nc(CS(=O)(=O)CC(=O)Nc3ccc(C)c(Cl)c3)c(C)o2)c1 -7.29%
COc1ccc(C(=O)N2CCN(c3nc4c(OC)cccc4s3)CC2)cc1OC -20.2%
COc1cccc(CNC(=O)Cn2cccc2C(=O)c2ccccc2)c1 -9.1%
COc1cc(C(=O)NCc2nc(-c3ccc(Cl)cc3)no2)cc(OC)c1OC 1.83%
CCc1ccc(CNC(=O)C2COc3ccccc3C2)cc1 (configuration not stated) -10.8%
Cc1cccc(CN2C(=O)c3ccccc3S(=O)(=O)c3ccc(C(=O)OCC4CCCO4)cc32)c1 (configuration not stated) 29.3%
NC(=O)c1ccc(-c2nc(-c3ccc4c(c3)OCCO4)c(-c3ccccn3)[nH]2)cc1 6.92%
CCn1c(CNC(=O)c2ccc(OC)cc2)nnc1SCC(=O)Nc1ccc(F)cc1 3.82%
Cc1cccc(C(=O)Nc2cc(-c3ccccc3F)nn2-c2ccccc2)c1 -3.82%
CCOC(=O)c1cc(S(=O)(=O)N2CCN(c3ccccc3OC)CC2)[nH]n1 2.88%
COc1ccc(NC(=O)CSCc2cc(=O)c3cc(Cl)ccc3[nH]2)cc1 -2.09%
COc1ccc(NC(=O)C(C)N2Cc3ccccc3C2=O)cc1OC (configuration not stated) -7.16%
COc1ccccc1CNC(=O)c1ccc2c(c1)nc(C)n2-c1cccc(C)c1 -14.1%
Cc1ccc(CCNC(=O)c2sc3nc4n(c(=O)c3c2C)CCCC4)cc1 -26.6%
Cc1ccc2c(c1)-c1c(cnc3cc(-c4ccc(Cl)cc4)nn13)CO2 62%
CC(C)CC(=O)n1nc(-c2ccco2)nc1NCc1ccc(Cl)cc1 -8.33%
CC(C)OC(=O)c1ccc(NC(=O)CSc2nc(-c3cccs3)cc(C(F)(F)F)n2)cc1 -7.42%
Cc1ccc(COC(=O)c2[nH]c3c(c2C)C(=O)CC(c2ccc(Cl)cc2)C3)cc1 (configuration not stated) 0.0973%
COc1ccccc1OC(C)C(=O)N1CCC(c2nc3ccccc3s2)CC1 (configuration not stated) -2.84%
COc1ccc(Cn2c(=O)c3ccccc3n3c(-c4ccc(C)cc4)nnc23)cc1 17.8%
Cc1ccc(C)c(CN2C(=O)CSc3ccc(C(=O)NCc4ccccc4)cc32)c1 -14.6%
CCc1cccc(NC(=O)Cn2nc(C)c3sc4ccccc4c3c2=O)c1 6.97%
COc1ccc(Cn2c(C(=O)O)c(CNCc3ccc(C)o3)c3ccc(OC)cc32)cc1 -8.73%
CCOc1ccc(NC(=O)c2ccc3nc(C(C)C)oc3c2)cc1 -6.75%
Cc1ccc(C)c(NC(=O)Cn2cc(S(=O)(=O)NC(C)C)c(S(=O)(=O)NC(C)C)c2)c1 -24.6%
COc1ccc(NC(=O)c2cnc3sc(N4CCOCC4)nn3c2=O)c(OC)c1 4.26%
COc1ccc2c(c1)CC(NC(=O)Nc1ccc(Br)c(C)c1)CO2 (configuration not stated) -5.42%
O=C(Nc1cccc(NC(=O)c2ccc(Br)cc2)c1)c1ccccc1 -10.1%
CCCn1c(NCc2ccccc2F)nc2ccccc21 3.76%
Cc1ccc(-c2nc(Cn3c(SCc4ccc(F)cc4)nc4cccnc43)c(C)o2)cc1 -21.7%
COc1ccc(C(=O)Nc2nonc2-c2ccc(OC)c(OC)c2)cc1Cl 9.73%
CCCCCNC(=O)c1ccc2c(=O)n(CCc3ccccc3)c(=O)[nH]c2c1 8.62%
CCN(C(=O)c1cccn(Cc2cccc(Cl)c2)c1=O)c1ccccc1 -29.7%
CCOC(=O)c1cc2c(=O)n3ccccc3nc2n(CC2CCCO2)c1=NC(=O)c1ccc(F)cc1 (configuration not stated) 0.627%
O=C(NCc1cccc(F)c1)c1ccc2nc(CCc3ccccc3)oc2c1 -7.27%
COc1ccc(-c2nnc(SCC(=O)Oc3cc(C)ccc3C)o2)cc1 -7.65%
CC(C)Oc1ccc(CNC(=O)c2ccc3c(c2)N(C)C(=O)C2CCCCN32)cc1 (configuration not stated) -5.76%
COc1ccc(CNc2ncnc3c2c(-c2ccccc2)cn3-c2cccc(C)c2)cc1 2.15%

outcome, inactive:
Cc1ccc(NS(=O)(=O)c2c(C)nc3sc(C)c(C)n3c2=O)cc1F
CCN1CCc2c(sc(-n3cccc3)c2C(CCC(C)C)NC(=O)NCCC(=O)OC)C1 (configuration not stated)
CCc1cccc(C)c1NC(=O)C(NS(=O)(=O)c1ccc2c(c1)CCC(=O)N2)c1ccccc1 (configuration not stated)
COC(=O)CCNC(=O)N1CCN(c2nnc(C)c3c(C)n(-c4ccccc4)nc23)CC1
O=C(Cn1c(=O)n(Cc2ccc(F)cc2)c(=O)c2sc3ccccc3c21)Nc1ccc(F)cc1F
COc1ccc(-c2cc(C(=O)Nc3c(C)nn(Cc4ccccc4C)c3C)no2)cc1
CCc1ccc(C(=O)c2cn(CC(=O)Nc3ccc(F)cc3)c3ccc(F)cc3c2=O)cc1
CCOc1ccc(C2CC(=O)Nc3c2c(=O)[nH]c2ncnn32)cc1 (configuration not stated)
Cc1ccc(N2CC(NC(=O)C3CCCCC3)CC2=O)cc1 (configuration not stated)
COc1ccc(C(C)=O)cc1CSc1nc(NCc2ccccc2)c2ccccc2n1
CC(CNC(=O)c1cc2cc(S(=O)(=O)N3CCCCC3)ccc2n1C)c1ccccc1 (configuration not stated)
COc1cc(C(=O)Nc2c(C(=O)Nc3ccccc3F)oc3ccccc23)cc(OC)c1OC
Cc1ccc(OCc2cc(=O)n3cc(C)sc3n2)c(NC(=O)c2ccco2)c1
CCC(=O)N1c2ccc(S(=O)(=O)CCC(=O)N3CCN(c4ccc(F)cc4)CC3)cc2CC1C (configuration not stated)
CCOC(=O)N1CCc2c(sc(NCc3cccc(F)c3)c2C(=O)Nc2ccc(OCC)cc2)C1
Cc1ccc(N2CC(NC(=O)C3CCCC3)CC2=O)cc1C (configuration not stated)
